# From PubChem BioAssay AID504466 (National Center for Advancing Translational Sciences (NCATS), 2011)
# About 4,200 (1.3%) of roughly 330,000 compounds were called active. Inconclusive means that the source gave no clear call. Such entries were picked first, then a sample of the others. Calls follow the shape of the dose curve; as a rule, active = well fitted activation curve with a large enough effect; inconclusive = small, poorly fitted or top-dose-only effect; inactive = no such curve, though single readings can be large or run the other way. Where the call is inconclusive, the potency comes from a doubtful curve fit.
# Assay: qHTS screen for small molecules that induce genotoxicity in human embryonic kidney (HEK293T) cells expressing luciferase-tagged ELG1; also: nearly all actives have a fitted effect of over 60% in size; as to activity change, positive = activation: % of control where 0% means no effect
# Conditions: HEK293T ELG1-luciferase reporter, luminescence, 16 h; series mostly up to 46 µM
# In short: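 HEK293T cells expressing luciferase-tagged ELG1 were treated with compound or DMSO for 16 hr at 37°C. Luciferase activity was then read after 30 min with ONE-Glo at room temperature; rising signal flags genetic stress.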
# Potency is read from the fitted curve at half-maximal effect; tags tell the direction and shape of the fitted curve.
SMILES,Potency,"activity change, positive = activation"
COc1ccc(-c2noc(-c3cccc(OC)c3OC)n2)cc1OC,active: 3.26 µM,
S=c1[nH]nc(-c2cc3c(s2)-c2ccccc2CC3)o1,"inconclusive: 16.4 µM [activator, partial curve, poor fit]",
CCC1CCC(NC(=O)Nc2cccc(OC)c2)CC1 (stereo unspecified),"inconclusive: 4.61 µM [activator, partial curve, poor fit]",
CCN(CC)c1ccc(/C=C2\NC(=O)NC2=O)cc1,"inconclusive: 29.1 µM [activator, partial curve, poor fit]",
N#Cc1cn(-c2ccccc2)nc1-c1cc2ccccc2oc1=O,"inconclusive: 18.4 µM [activator, single point]",
COc1ccc(C(=O)NCc2ccccc2C)cc1S(=O)(=O)NC1CCCC1,inactive,
O=C(CCS(=O)(=O)c1ccccc1)NC12CC3CC(CC(C3)C1)C2,active: 9.2 µM,
CCc1ccc(NC(=O)N2CCc3ccccc3C2)cc1,"inconclusive: 5.8 µM [activator, partial curve]",
O=C(N[C@H]1/C=C\[C@@H](O)CCCC1)OCc1ccccc1,active: 14.6 µM,
CN(C)c1ccc(CC2C(=O)Nc3ccccc32)cc1 (stereo unspecified),"inconclusive: 16.4 µM [activator, partial curve, poor fit]",
CCOC(=O)c1c(NC(=O)CN(CC)CC)sc2c1CCN(C(=O)OCC)C2,inactive,
CC(/C=N/NC(=O)c1nnn(-c2nonc2N)c1C)=C\c1ccccc1,"inconclusive: 4.11 µM [activator, single point]",
C/C(=N\N1CCN(C2c3ccccc3-c3ccccc32)CC1)c1cccnc1,inactive,
O=C(Cn1ncc(N2CCCC2)c(Cl)c1=O)c1ccc(Cl)cc1,"inconclusive: 20.6 µM [activator, partial curve]",
COc1ccc(OC)c(NC(=O)Cn2c(C)nc3ccccc3c2=O)c1,"inconclusive: 4.11 µM [activator, partial curve]",
CCCCCCSc1ccc([C@H]2N[C@@](Cc3ccccc3)(C(=O)OC)[C@H]3C(=O)N(C)C(=O)[C@@H]23)cc1OC,"inconclusive: 29.1 µM [activator, single point]",
O=C1c2cccc3cccc(c23)C(=O)N1CCN1CCN(C(=S)Nc2ccc(F)cc2)CC1,"inconclusive: 25.9 µM [activator, partial curve, poor fit]",
Cc1c(C(=O)N2CCCCC2)c(S(=O)(=O)Nc2ccc(F)cc2F)c(C)n1C,,inactive: -1.62% [at 9.26 µM]
O=C(CCn1c(=S)[nH]c2ccccc2c1=O)NCCc1ccccc1,"inconclusive: 32.6 µM [activator, partial curve, poor fit]",
CCOC(=O)c1sc(N/N=C/c2ccccc2)nc1C,active: 8.2 µM,
CC(C)CNC(=O)C(=O)Nc1ccc(N(C)C)cc1,"inconclusive: 9.2 µM [activator, partial curve]",
O=C(Nc1cccc2cccnc12)c1ccc(Br)o1,"inconclusive: 29.1 µM [activator, single point]",
CC(C)c1ccc(NC(=O)CSc2ncccc2C(=O)Oc2cccc([N+](=O)[O-])c2)cc1,active: 16.4 µM,
C[C@H](CO)N1C[C@H](C)[C@@H](CN(C)C)Oc2c(NC(=O)CCC(F)(F)F)cccc2C1=O,inactive,

SMILES,Potency,"activity change, positive = activation"
Cc1ccc(SCC(=O)N=C2NC(=O)CS2)cc1,inactive,
Cc1cc(C)n(-c2nc3ccccc3c(=O)n2OCC#N)n1,"inconclusive: 6.51 µM [activator, partial curve, poor fit]",
CC(C)CNC(=O)C(=O)N/N=C/c1cccs1,"inconclusive: 25.9 µM [activator, partial curve, poor fit]",
COc1ccccc1CNC(=O)COC(=O)c1cccnc1SCC(=O)NCc1ccccc1OC,inactive,
CC(=O)c1ccc(NC(=O)c2cnn3ccccc23)cc1,active: 1.3 µM,
Cc1oc(-c2ccccc2)cc1C(=O)Nc1ccccc1,inactive,
O=[N+]([O-])c1ccccc1S(=O)(=O)Nc1cccc(-c2ccc(N3CCOCC3)nn2)c1,"inconclusive: 11.6 µM [activator, single point]",
CN(C)CCN(C(=O)c1ccco1)c1nc2cc3c(cc2s1)OCCO3,active: 18.3 µM,
C/C(=N/OC(=O)C1CC1c1ccccc1)c1ccccc1 (stereo unspecified),"inconclusive: 1.03 µM [activator, single point]",
Nc1c(C(=O)Nc2ccccc2F)sc2nc(-c3ccco3)ccc12,"inconclusive: 20.6 µM [activator, partial curve, poor fit]",
Cc1ccc(C)c(NC(=O)c2cnc3n(c2=O)CCS3)c1,inactive,
CC(C)N(CCCNC(=O)c1ccc(N2CCCC2=O)cc1)Cc1ccccc1,"inconclusive: 16.4 µM [activator, partial curve, poor fit]",
CCOC(=O)N1CCN(C(=O)CSC2=NS(=O)(=O)c3cc(F)ccc3N2)CC1,inactive,
COc1ccc(Cn2cccc(NC(=O)Nc3cccc(OC)c3)c2=O)cc1,inactive,
Cc1ccc(/C=C2\SC(=O)N(CCNC(=O)C3CSC4(C)CCC(=O)N34)C2=O)cc1 (stereo unspecified),inactive,
COC(=O)Cn1c(=NC(=O)c2nc3ccccc3s2)sc2cc(S(N)(=O)=O)ccc21,"inconclusive: 25.9 µM [activator, partial curve, poor fit]",
Cc1ncoc1C(=O)Nc1cccc(Cl)c1,"inconclusive: 13 µM [activator, partial curve, poor fit]",
Cc1ccc(S(=O)(=O)Oc2ccc(/C=N/N=C3/NC(=O)C(CC(=O)O)S3)cc2)cc1[N+](=O)[O-] (stereo unspecified),inactive,
Cc1ccc(NC(=O)C2CCCN(c3ncccn3)C2)cc1F (stereo unspecified),active: 9.2 µM,
Cc1nnc(SCc2ccccc2F)n1NCc1cccs1,"inconclusive: 14.6 µM [activator, partial curve, poor fit]",
Cc1ccc(NC(=O)CSC(C)c2nc3ccccc3c(=O)[nH]2)cc1 (stereo unspecified),inactive,
CCOC(=O)N1CCC(NCCNC(=O)c2ccc(F)c(F)c2)CC1,inactive,
CC(C)(C)c1ccc(-c2cc(C(=O)NNC(=O)Nc3ccccc3)c3ccccc3n2)cc1,"inconclusive: 2.59 µM [activator, full curve]",
COc1ccc(-n2nc([N+](=O)[O-])c(=NCCCN3CCCC3=O)n2O)cc1,"inconclusive: 2.31 µM [activator, partial curve, poor fit]",

SMILES,Potency,"activity change, positive = activation"
COc1ccc(CNS(=O)(=O)c2cc(-c3cc(C)no3)ccc2C)cc1OC,,inactive: -0.991% [at 9.26 µM]
CCOc1ccc(NC(=O)c2ccc(NC(=O)CSc3nc4ccccc4c(=O)[nH]3)cc2)cc1,"inconclusive: 13 µM [activator, partial curve]",
CCc1nnc(NC(=O)CSc2nc3c(cc2C#N)CCCC3)s1,"inconclusive: 2.31 µM [activator, full curve]",
Cc1cc(C)nc(Nc2n[nH]c(-c3ccccc3Br)n2)n1,active: 18.4 µM,
CC(C)c1ccc(NC(=O)N2CCc3ccccc3C2)cc1,"inconclusive: 18.3 µM [activator, partial curve]",
COC(=O)c1ccc(N2CCCCC2)c(N)c1,"inconclusive: 18.3 µM [activator, partial curve]",
COc1ccc(C(=O)Nc2ccccc2C(=O)Nc2ccncc2)cc1,"inconclusive: 13 µM [activator, partial curve]",
O=C(CN(C(=O)CNS(=O)(=O)c1ccccc1)c1ccc(F)cc1)NCc1ccco1,inactive,
Cc1ccc2nc(NC(=O)COC(=O)c3ccncc3)sc2c1,"inconclusive: 9.2 µM [activator, partial curve, poor fit]",
O=c1cc(-c2ccsc2)oc2cc(-c3ccc4c(c3)OCO4)ccc12,inactive,
CN(C)c1ccc(/C=N/NC(=O)c2ccccc2Cl)cc1,"inconclusive: 14.6 µM [activator, partial curve]",
CS(=O)(=O)Cc1ccc(C(=O)NC2CCCc3ccccc32)cc1 (stereo unspecified),inactive,
O=C1CCc2cc(NS(=O)(=O)c3ccc(Cl)cc3)cc3c2N1CC3,"inconclusive: 29.1 µM [activator, partial curve, poor fit]",
CCOC(=O)C1CCN(S(=O)(=O)c2ccc(-c3nc4ccccc4s3)s2)CC1,"inconclusive: 32.6 µM [activator, partial curve, poor fit]",
COc1ccccc1OCC(=O)Nc1nc(C)c(C)s1,"inconclusive: 2.31 µM [activator, partial curve, poor fit]",
O=C(O)c1ccc(/C=N/Nc2ccc(C(F)(F)F)cn2)cc1,"inconclusive: 1.83 µM [activator, full curve]",
O=C(CSc1cn(CCNC(=O)c2ccc3ccccc3c2)c2ccccc12)NCc1ccco1,"inconclusive: 4.61 µM [activator, single point]",
O=C(Nc1nc2ccc(S(=O)(=O)N3CCCCC3)cc2s1)c1ccncc1,inactive,
CCn1cnc2c1c(=O)n(CC(=O)OC(C)C(N)=O)c(=O)n2Cc1ccccc1 (stereo unspecified),inactive,
COc1ccc(/C=N/Nc2nc3ccccc3o2)cc1OC,active: 2.59 µM,
O=C(/C=C/c1ccco1)Nc1ccc(N2CCCC2)cc1,"inconclusive: 6.51 µM [activator, partial curve]",
COc1ccc(C)cc1NC(=O)CSc1ccc(-c2ccccn2)nn1,"inconclusive: 32.6 µM [activator, partial curve, poor fit]",
Cc1cc(NC(=O)COc2ccc3ccccc3c2Br)no1,"inconclusive: 14.6 µM [activator, single point]",
